Experimental data published in patent publication US20230287125A1 (LEPU BIOPHARMA, published 2023).

What was measured:
human TGF-β1 protein [1] = molecular target: T1, human TGF-β1 protein (human, UniProt P01137 part only); assay: SPR (Biacore T200), LP008-02 captured on Protein A chip, human TGF-β1 injected
T1 construct: also called human TGF-β1 protein (Acro, TG1-H4212); recombinant human TGF-β1
Procedure: (§1) All the experiments were carried out on a Biacore T200. Data analysis was carried out using Biacore T200 evaluation software.

[2] = molecular target: T2, human PD-L1-his tag protein (human, UniProt Q9NZQ7 part only); assay: ELISA, coated human PD-L1-His
T2 construct: also called human PD-L1-His protein; recombinant PD-L1 protein; not shown: his tag
From the text: (§2) After washing, the plates were developed with TMB substrate and analyzed by spectrophotometer at OD 450 nm.

mouse TGF-β protein = mouse TGF-β protein (mouse); assay: ELISA, coated mouse TGF-β
From the text: as §2

[3] = molecular target: PD-L1 on PD-L1 target cells (Homo sapiens (Human), UniProt Q9NZQ7); assay: cell-based or functional assay
rat PD-L1 protein = rat PD-L1 protein (rat, UniProt D4AE25 19-239); assay: ELISA, coated rat PD-L1
rat TGF-β protein = rat TGF-β protein (rat); assay: ELISA, coated rat TGF-β
From the text: as §2

[4] = molecular target: T2, human PD-L1-his tag protein; assay: SPR (Biacore T200), LP008-02 captured on Protein A chip, PD-L1-his injected
Procedure: as §1

mouse PD-L1 protein = mouse PD-L1 protein (mouse, UniProt Q9EP73 part only); assay: ELISA, coated mouse PD-L1
cynomolgus TGF-β protein = cynomolgus TGF-β protein (cynomolgus); assay: ELISA, coated cynomolgus TGF-β
From the text: as §2

cynomolgus PD-L1 protein = cynomolgus PD-L1 protein (cynomolgus, UniProt G7PSE7 19-238); assay: ELISA, coated cynomolgus PD-L1
From the text: as §2

human TGF-β1 protein [5] = molecular target: T1, human TGF-β1 protein; assay: ELISA, molecule titrated on coated human TGF-β1, OD 450nm; right panel
From the text: as §2

human TGF-β1 protein [6] = molecular target: T1, human TGF-β1 protein; assay: ELISA, molecule titrated on coated human TGF-β1, anti-human IgG Fc-HRP, OD 450nm
human TGF-β1 protein [7] = molecular target: T1, human TGF-β1 protein; assay: ELISA, molecule titrated on coated human TGF-β1, OD450 nm; left panel
From the text: as §2

[8] = molecular target: T2, human PD-L1-his tag protein; assay: SPR (Biacore T200), molecule captured on Protein A chip, PD-L1-his injected
Procedure: A serial dilution of human PD-L1-his tag protein was injected over captured antibody for 2 mins at a flow rate of 30 μl/min. The antigen was allowed to dissociate for 1500 s. All the experiments were carried out on a Biacore T200. Data analysis was carried out using Biacore T200 evaluation software.

T2 sequence (Q9NZQ7 19-238 limits assumed): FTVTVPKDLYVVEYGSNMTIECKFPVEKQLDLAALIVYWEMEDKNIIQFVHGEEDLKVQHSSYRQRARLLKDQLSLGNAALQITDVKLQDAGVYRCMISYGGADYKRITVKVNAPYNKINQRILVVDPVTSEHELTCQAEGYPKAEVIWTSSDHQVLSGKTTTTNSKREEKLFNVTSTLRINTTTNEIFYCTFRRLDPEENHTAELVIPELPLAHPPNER
T1 sequence (P01137 279-390 limits assumed): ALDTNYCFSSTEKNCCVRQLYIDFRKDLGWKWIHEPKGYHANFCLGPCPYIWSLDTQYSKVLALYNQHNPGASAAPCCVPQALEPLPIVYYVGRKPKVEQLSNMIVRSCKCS
Sequence of rat PD-L1 protein (D4AE25 entry or part of it limits assumed): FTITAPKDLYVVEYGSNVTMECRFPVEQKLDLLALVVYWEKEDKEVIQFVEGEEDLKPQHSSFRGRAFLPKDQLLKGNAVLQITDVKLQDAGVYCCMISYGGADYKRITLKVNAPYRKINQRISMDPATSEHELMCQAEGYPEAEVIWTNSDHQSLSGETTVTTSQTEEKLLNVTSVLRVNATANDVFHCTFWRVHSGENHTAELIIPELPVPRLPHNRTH
Sequence of mouse PD-L1 protein (Q9EP73 19-239 limits assumed): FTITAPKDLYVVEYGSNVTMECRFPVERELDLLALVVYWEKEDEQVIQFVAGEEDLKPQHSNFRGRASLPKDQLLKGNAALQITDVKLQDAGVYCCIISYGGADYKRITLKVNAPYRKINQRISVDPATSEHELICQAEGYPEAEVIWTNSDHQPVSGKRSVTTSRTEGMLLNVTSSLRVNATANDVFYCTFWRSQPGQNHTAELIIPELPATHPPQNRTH
Sequence of cynomolgus PD-L1 protein (G7PSE7 entry or part of it): as the sequence (Q9NZQ7 19-238 limits assumed) above, with A33T, A34S, S62N, R68Q, Q82R, F173L, T185A, T192I, H215L counted along it
Sequence of mouse TGF-β protein (P04202 279-390): as the sequence (P01137 279-390 limits assumed) above, with A75S counted along it
Sequence of rat TGF-β protein (P17246 279-390): as the sequence (P01137 279-390 limits assumed) above, with A75S counted along it
Sequence of cynomolgus TGF-β protein (P09533 279-390): as the sequence (P01137 279-390 limits assumed) above

Binder | Kd (human TGF-β1 protein [1]) | koff (human TGF-β1 protein [1]) | kon (human TGF-β1 protein [1]) | EC50 [2] | EC50 (mouse TGF-β protein) | EC50, NFAT-RE-mediated luminescence, PD1 effector cells co-cultured with PD-L1 target cells [3] | EC50 (rat TGF-β protein) | Kd [4] | koff [4] | kon [4] | EC50 (cynomolgus TGF-β protein) | EC50 (cynomolgus PD-L1 protein) | EC50 (human TGF-β1 protein [5]) | EC50 (human TGF-β1 protein [6]) | EC50 (human TGF-β1 protein [7]) | Kd [8] | koff [8] | kon [8] | binding result (rat PD-L1 protein) | binding result (mouse PD-L1 protein)
LP008-02 (other, bifunctional anti-PD-L1 antibody / TGF-β RII extracellular domain fusion protein) heavy: EVQLVQSGAEVKKPGASVKVSCKASGYTFTDFWVSWVRQAPGQGLEWMGEIYPNSGVSRYNEKFKGRVTMTVDKSISTAYMELSRLRSDDTAVYYCTKYFGYTYWFGYWGQGTLVTVSSASTKGPSVFPLAPSSKSTSGGTAALGCLVKDYFPEPVTVSWNSGALTSGVHTFPAVLQSSGLYSLSSVVTVPSSSLGTQTYICNVNHKPSNTKVDKRV[not shown - human IgG1 Fc]GGGGSGGGGSGGGGSGGGGSGIPPHVQKSVNNDMIVTDNNGAVKFPQLCKFCDVRFSTCDNQKSCMSNCSITSICEKPQEVCVAVWRKNDENITLETVCHDPKLPYHDFILEDAASPKCIMKEKKKPGETFFMCSCSSDECNDNIIFSEEYNTSNPD light: DIQMTQSPSSLSASVGDRVTITCRASKSVSTYMHWYQQKPGKQPKLLIYSASHLESGVPSRFSGSGSGTDFTLTISSLQPEDFATYYCQQSNELPVTFGGGTKVEIKRTVAAPSVFIFPPSDEQLKSGTASVVCLLNNFYPREAKVQWKVDNALQSGNSQESVTEQDSKDSTYSLSSTLTLSKADYEKHKVYACEVTHQGLSSPVTKSFNRGEC | 0.0021 nM | 0.000272 s⁻¹ | 1.29e+08 M⁻¹ s⁻¹ | 0.0118 µg/mL | 0.0347 µg/mL | 0.363 nM | 0.0778 µg/mL | 0.0413 nM | 0.000104 s⁻¹ | 2.53e+06 M⁻¹ s⁻¹ | 0.0344 µg/mL | 0.00789 µg/mL |  |  |  |  |  |  | no binding (tested: dilutions starting from 1 µg/ml) | no binding (tested: dilutions starting from 1 µg/ml)
LP008-02-1 (other, modified LP008-02; also called Molecule 1) heavy: EVQLVQSGAEVKKPGASVKVSCKASGYTFTDFWVSWVRQAPGQGLEWMGEIYPNSGVSRYNEKFKGRVTMTVDKSISTAYMELSRLRSDDTAVYYCTKYFGYTYWFGYWGQGTLVTVSSASTKGPSVFPLAPSSKSTSGGTAALGCLVKDYFPEPVTVSWNSGALTSGVHTFPAVLQSSGLYSLSSVVTVPSSSLGTQTYICNVNHKPSNTKVDKRV[not shown - human IgG1 Fc]GGGGSGGGGSGGGGSGGGGSGIPPHVQKSVNNDMIVTDNNGAVKFPQLCKFCDVRFSTCDNQKSCMSNCSITSICEKPQEVCVAVWRKNDENITLETVCHDPKLPYHDFILEDAASPKCIMKEKKKPGETFFMCSCSSDECNDNIIFSEEYNTSNPD light: DIQMTQSPSSLSASVGDRVTITCRASKSVSTYMHWYQQKPGKQPKLLIYSASHLESGVPSRFSGSGSGTDFTLTISSLQPEDFATYYCQQSNELPVTFGGGTKVEIKRTVAAPSVFIFPPSDEQLKSGTASVVCLLNNFYPREAKVQWKVDNALQSGNSQESVTEQDSKDSTYSLSSTLTLSKADYEKHKVYACEVTHQGLSSPVTKSFNRGEC |  |  |  |  |  |  |  |  |  |  |  |  | 1.21 nM | 0.245 nM | 0.926 nM |  |  |  |  | 

Further lines, with some results ahead:

Kd (human TGF-β1 protein [1]) | koff (human TGF-β1 protein [1]) | kon (human TGF-β1 protein [1]) | EC50 [2] | EC50 (mouse TGF-β protein) | EC50, NFAT-RE-mediated luminescence, PD1 effector cells co-cultured with PD-L1 target cells [3] | EC50 (rat TGF-β protein) | Kd [4] | koff [4] | kon [4] | EC50 (cynomolgus TGF-β protein) | EC50 (cynomolgus PD-L1 protein) | EC50 (human TGF-β1 protein [5]) | EC50 (human TGF-β1 protein [6]) | EC50 (human TGF-β1 protein [7]) | Kd [8] | koff [8] | kon [8] | Binder | binding result (rat PD-L1 protein) | binding result (mouse PD-L1 protein)
 |  |  |  |  |  |  |  |  |  |  |  | 1.06 nM | 0.267 nM |  |  |  |  | LP008-02-7 (other, modified LP008-02; also called Molecule 7) heavy: EVQLVQSGAEVKKPGASVKVSCKASGYTFTDFWVSWVRQAPGQGLEWMGEIYPNSGVSRYNEKFKGRVTMTVDKSISTAYMELSRLRSDDTAVYYCTKYFGYTYWFGYWGQGTLVTVSSASTKGPSVFPLAPSSKSTSGGTAALGCLVKDYFPEPVTVSWNSGALTSGVHTFPAVLQSSGLYSLSSVVTVPSSSLGTQTYICNVNHKPSNTKVDKRV[not shown - human IgG1 Fc]GGGGSGGGGSGGGGSHYPQLCKFCDVRFSTCDNQKSCMSNCSITSICEKPQEVCVAVWRKNDENITLETVCHDPKLPYHDFILEDAASPKCIMKEKKKPGETFFMCSCSSDECNDNIIFSEEYNTSNPD light: DIQMTQSPSSLSASVGDRVTITCRASKSVSTYMHWYQQKPGKQPKLLIYSASHLESGVPSRFSGSGSGTDFTLTISSLQPEDFATYYCQQSNELPVTFGGGTKVEIKRTVAAPSVFIFPPSDEQLKSGTASVVCLLNNFYPREAKVQWKVDNALQSGNSQESVTEQDSKDSTYSLSSTLTLSKADYEKHKVYACEVTHQGLSSPVTKSFNRGEC |  | 
 |  |  | 0.0144 µg/mL | 0.0583 µg/mL | 0.455 nM | 0.121 µg/mL |  |  |  | 0.0583 µg/mL | 0.0109 µg/mL |  |  |  | 0.0631 nM | 5.3e-05 s⁻¹ | 840000 M⁻¹ s⁻¹ | LP008-06a-ES (other, bifunctional anti-PD-L1 antibody / TGF-β RII extracellular domain fusion protein) heavy: EVQLVESGGGLVKPGGSLRLSCAASGFTFSNYWMTWIRQAPGKGLEWVASITNTGSSTFYPESVKGRFTISRDNAKNSLYLQMNSLRAEDTAVYYCTRDTTIAPFDYWGQGTMVTVSSASTKGPSVFPLAPSSKSTSGGTAALGCLVKDYFPEPVTVSWNSGALTSGVHTFPAVLQSSGLYSLSSVVTVPSSSLGTQTYICNVNHKPSNTKVDKRV[not shown - human IgG1 Fc]GGGGSGGGGSGGGGSGGGGSGIPPHVQKSVNNDMIVTDNNGAVKFPQLCKFCDVRFSTCDNQKSCMSNCSITSICEKPQEVCVAVWRKNDENITLETVCHDPKLPYHDFILEDAASPKCIMKEKKKPGETFFMCSCSSDECNDNIIFSEEYNTSNPD light: DIQMTQSPSSLSASVGDRVTITCKASQNLNEYLNWYQQKPGKAPKRLIYKTNTLQAGIPSRFSGSGSGTDYTLTISSLQPEDFATYYCSQYQSGNTFGQGTKLEIKRTVAAPSVFIFPPSDEQLKSGTASVVCLLNNFYPREAKVQWKVDNALQSGNSQESVTEQDSKDSTYSLSSTLTLSKADYEKHKVYACEVTHQGLSSPVTKSFNRGEC | no binding (tested: dilutions starting from 1 µg/ml) | no binding (tested: dilutions starting from 1 µg/ml)
